According to PMC7887818:
These are yes or no findings as the source states them, for the method shown. In cells and extracts the contact can be indirect. Some binding calls cover weakened binding; strength is not graded here.

Protein sequences, listed by entry. Tags and fused reporters are not part of them. Lines headed by an entry give the natural chain unless they say otherwise; changes in a name come on top.
UniProt Q16877: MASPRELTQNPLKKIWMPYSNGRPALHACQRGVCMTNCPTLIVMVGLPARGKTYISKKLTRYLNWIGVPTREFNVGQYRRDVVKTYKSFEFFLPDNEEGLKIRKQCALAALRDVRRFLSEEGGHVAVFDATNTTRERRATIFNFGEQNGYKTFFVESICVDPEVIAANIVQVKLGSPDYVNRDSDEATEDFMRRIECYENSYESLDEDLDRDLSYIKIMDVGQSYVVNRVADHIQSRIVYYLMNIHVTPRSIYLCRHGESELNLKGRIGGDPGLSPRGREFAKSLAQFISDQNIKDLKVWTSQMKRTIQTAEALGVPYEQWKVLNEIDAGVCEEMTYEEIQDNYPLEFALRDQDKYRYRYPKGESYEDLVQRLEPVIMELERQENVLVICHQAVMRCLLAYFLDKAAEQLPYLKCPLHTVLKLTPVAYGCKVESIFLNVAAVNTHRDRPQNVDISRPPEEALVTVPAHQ
UniProt Q15596: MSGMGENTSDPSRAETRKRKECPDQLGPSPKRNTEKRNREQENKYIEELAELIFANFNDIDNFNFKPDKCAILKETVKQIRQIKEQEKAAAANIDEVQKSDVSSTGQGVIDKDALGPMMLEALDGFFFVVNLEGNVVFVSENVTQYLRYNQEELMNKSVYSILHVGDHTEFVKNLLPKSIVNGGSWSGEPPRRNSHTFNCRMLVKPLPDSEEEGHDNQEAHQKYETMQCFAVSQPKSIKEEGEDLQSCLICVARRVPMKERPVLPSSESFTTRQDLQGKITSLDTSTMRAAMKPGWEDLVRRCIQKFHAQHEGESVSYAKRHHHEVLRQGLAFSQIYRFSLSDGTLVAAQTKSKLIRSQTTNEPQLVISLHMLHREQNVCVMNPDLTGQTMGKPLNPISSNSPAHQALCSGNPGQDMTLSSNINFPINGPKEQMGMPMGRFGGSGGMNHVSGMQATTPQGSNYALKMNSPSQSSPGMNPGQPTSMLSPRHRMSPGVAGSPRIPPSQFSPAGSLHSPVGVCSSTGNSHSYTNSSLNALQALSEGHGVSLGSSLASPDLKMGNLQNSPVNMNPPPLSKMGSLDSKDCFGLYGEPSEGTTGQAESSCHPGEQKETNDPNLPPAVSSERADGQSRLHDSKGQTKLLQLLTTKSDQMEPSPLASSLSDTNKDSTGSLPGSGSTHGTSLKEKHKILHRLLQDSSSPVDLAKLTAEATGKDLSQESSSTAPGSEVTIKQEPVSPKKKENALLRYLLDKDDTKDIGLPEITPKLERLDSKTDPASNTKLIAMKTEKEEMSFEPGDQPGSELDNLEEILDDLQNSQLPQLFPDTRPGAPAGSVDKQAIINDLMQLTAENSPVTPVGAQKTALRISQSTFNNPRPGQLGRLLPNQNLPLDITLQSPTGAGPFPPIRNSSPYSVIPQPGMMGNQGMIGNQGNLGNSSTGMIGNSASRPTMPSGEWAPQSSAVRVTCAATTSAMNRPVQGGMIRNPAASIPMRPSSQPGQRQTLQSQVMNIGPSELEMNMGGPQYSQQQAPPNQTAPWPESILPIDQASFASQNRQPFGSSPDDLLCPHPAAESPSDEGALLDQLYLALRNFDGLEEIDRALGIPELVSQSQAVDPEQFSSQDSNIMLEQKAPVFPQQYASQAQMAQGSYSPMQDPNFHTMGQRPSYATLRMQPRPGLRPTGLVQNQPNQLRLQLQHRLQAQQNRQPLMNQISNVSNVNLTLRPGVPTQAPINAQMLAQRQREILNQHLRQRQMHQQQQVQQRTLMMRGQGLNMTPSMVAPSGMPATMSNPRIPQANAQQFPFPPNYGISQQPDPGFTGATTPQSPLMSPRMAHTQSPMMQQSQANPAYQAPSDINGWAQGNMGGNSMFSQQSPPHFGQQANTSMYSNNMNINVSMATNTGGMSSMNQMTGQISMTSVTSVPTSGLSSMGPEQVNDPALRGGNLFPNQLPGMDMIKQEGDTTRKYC
UniProt Q15788: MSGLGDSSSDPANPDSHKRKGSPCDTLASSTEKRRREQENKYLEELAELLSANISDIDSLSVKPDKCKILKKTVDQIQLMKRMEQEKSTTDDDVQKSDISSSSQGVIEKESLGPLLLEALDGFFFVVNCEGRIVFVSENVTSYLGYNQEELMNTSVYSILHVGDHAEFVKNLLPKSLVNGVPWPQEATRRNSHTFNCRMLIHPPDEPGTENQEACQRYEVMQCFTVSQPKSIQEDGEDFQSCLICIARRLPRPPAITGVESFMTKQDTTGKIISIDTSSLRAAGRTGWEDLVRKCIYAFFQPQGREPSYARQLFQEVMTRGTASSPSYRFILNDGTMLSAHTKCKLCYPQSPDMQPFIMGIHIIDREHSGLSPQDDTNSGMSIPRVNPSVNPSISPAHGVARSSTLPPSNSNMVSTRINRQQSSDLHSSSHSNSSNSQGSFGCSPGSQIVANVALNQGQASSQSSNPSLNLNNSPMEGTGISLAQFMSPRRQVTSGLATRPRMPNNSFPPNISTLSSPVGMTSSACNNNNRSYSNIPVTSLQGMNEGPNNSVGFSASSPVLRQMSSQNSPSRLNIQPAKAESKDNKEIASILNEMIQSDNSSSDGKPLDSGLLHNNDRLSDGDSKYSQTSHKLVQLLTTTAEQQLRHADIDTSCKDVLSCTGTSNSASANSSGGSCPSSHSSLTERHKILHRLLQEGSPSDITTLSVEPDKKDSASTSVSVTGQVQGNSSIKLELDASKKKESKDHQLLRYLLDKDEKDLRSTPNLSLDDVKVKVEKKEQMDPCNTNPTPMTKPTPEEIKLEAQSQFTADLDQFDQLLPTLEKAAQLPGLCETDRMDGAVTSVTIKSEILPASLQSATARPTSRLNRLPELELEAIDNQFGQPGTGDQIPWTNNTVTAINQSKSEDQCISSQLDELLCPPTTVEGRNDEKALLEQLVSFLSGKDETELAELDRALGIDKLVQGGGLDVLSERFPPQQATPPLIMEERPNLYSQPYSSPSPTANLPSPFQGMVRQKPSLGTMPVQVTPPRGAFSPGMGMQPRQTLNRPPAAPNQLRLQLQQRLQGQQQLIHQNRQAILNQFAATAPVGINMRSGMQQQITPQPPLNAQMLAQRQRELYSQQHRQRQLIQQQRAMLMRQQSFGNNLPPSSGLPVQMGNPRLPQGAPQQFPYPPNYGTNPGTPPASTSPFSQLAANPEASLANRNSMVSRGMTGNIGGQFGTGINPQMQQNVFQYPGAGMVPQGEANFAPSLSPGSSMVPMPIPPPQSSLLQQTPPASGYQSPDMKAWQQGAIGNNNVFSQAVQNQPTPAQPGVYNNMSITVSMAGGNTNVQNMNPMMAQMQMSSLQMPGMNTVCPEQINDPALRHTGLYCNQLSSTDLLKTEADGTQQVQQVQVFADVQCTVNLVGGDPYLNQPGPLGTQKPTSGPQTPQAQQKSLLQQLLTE

What was measured:
[1] = target: myc-PFKFB4 (6-phosphofructo-2-kinase/fructose-2,6-biphosphatase-4) (UniProt Q16877); assay: co-IP; 293T cells transfected with myc-PFKFB4 together with SRC-1, SRC-2 or SRC-3; immunoprecipitation with anti-Myc, western blot for SRC proteins; pCMV6-Myc as negative control
[2] = target: PFKFB4 in A549 cells (co-IP with overexpressed SRC-2 WT or S487A) (UniProt Q16877); assay: co-IP; A549 cells overexpressing SRC-2 WT or SRC-2 S487A; co-IP of PFKFB4, SRC-2 detected
[3] = target: PFKFB4, endogenous in A549 and NCI-H1975 cells (human (endogenous in A549 and NCI-H1975)) (UniProt Q16877); assay: co-IP; endogenous immunoprecipitation with anti-PFKFB4 antibody in A549 and NCI-H1975 cells, western blot; IgG as negative control
HA-SRC-2 = HA-SRC-2 (UniProt Q15596); assay: co-IP; 293T cells expressing HA-SRC-2 transfected with empty vector or myc-PFKFB4; immunoprecipitation with anti-HA, western blot for PFKFB4; pCMV6-HA as negative control

SRC-1 (from UniProt Q15788 1-1441)
binding [1]: no binding

SRC-2 (steroid receptor coactivator-2), co-transfected with myc-PFKFB4 in 293T cells (from UniProt Q15596 1-1464)
binding [1]: binds

SRC-2 S487A, phosphor-deficient SRC-2 mutant, overexpressed in A549 cells (from UniProt Q15596 1-1464)
binding [2]: binds

SRC-2 WT overexpressed in A549 cells (from UniProt Q15596 1-1464)
binding [2]: binds

SRC-2 phosphorylated at Ser487, endogenous in A549 and NCI-H1975 cells (from UniProt Q15596 1-1464)
binding [3]: binds

SRC-2, endogenous in A549 and NCI-H1975 cells (from UniProt Q15596 1-1464)
binding [3]: binds

myc-PFKFB4 (6-phosphofructo-2-kinase/fructose-2,6-biphosphatase-4) (from UniProt Q16877 1-469) (enzyme)
binding (HA-SRC-2): binds
